# Assay results: the supplement of paper PMC3334620
# Whole data set: some 33,000 sequences, median “E-score (-0.5 to 0.5)” near -0.016, cut for the highest 2% near 0.32. This is one part of the list.
# Molecular target: T1, Stp1 (UniProt B3LFK1)
# T1 sequence: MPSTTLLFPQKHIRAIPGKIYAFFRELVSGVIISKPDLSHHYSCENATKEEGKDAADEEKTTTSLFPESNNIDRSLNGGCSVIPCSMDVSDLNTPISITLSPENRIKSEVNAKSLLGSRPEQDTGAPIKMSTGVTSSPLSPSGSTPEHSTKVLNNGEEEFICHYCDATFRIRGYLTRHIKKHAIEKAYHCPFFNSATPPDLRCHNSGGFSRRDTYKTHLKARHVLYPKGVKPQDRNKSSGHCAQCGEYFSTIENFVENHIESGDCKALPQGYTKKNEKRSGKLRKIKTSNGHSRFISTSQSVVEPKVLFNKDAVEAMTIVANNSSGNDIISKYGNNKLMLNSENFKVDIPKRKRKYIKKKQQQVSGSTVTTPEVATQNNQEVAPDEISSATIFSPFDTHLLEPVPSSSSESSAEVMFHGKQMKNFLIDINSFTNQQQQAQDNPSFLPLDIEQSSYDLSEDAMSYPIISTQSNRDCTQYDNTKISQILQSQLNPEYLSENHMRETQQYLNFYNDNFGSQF
# Test: PBM E-score (8-mer binding enrichment) (E-score (-0.5 to 0.5)); higher = stronger / more preferred TF binding; most listed sequences are background and not binding sites
# Conditions: protein concentration: 200 nM; construct: GST-full length
# Method: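 Universal 'all 10-mer' protein binding microarrays (Agilent AMADID 015681) probed with GST-tagged S. cerevisiae TFs (full-length or DBD) made by in vitro transcription/translation (PURExpress), about 100-200 nM. Bound TF was detected with fluorescent anti-GST. Each ungapped 8-mer (which stands for itself and its reverse complement) is scored by the PBM enrichment score (E-score), a modified Wilcoxon-Mann-Whitney statistic from -0.5 to +0.5, computed with the Universal PBM Analysis Suite. Scale: above 0.35 generally sequence-specific binding.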
row,Sequence,PBM E-score
1,CCCCACAG,-0.211
2,GATCTACC,-0.204
3,ACGTCGTG,-0.00714
4,GTAGGCAA,0.086
5,AGAGGCTA,-0.136
6,AACATACA,0.0939
7,CGGCTTAA,0.318
8,ACCGTGCG,0.371
9,GTTCCTCA,-0.0243
10,AGCAATAG,0.0149
11,CAGTCATG,-0.178
12,CAATACTA,0.0551
13,CATTCTAC,0.177
14,CTTAGAAG,-0.0262
15,AACGACTT,-0.155
16,GACTCCTA,-0.211
17,AGCGTATG,-0.069
18,AGCATCGC,-0.17
19,AAACGTTG,-0.17
20,CCCGGGTA,-0.253
21,ATAAGTCG,-0.108
22,AACCCTCC,-0.264

row,Sequence,PBM E-score
1,AGTGGCAA,0.162
2,GCCCAAAA,0.0343
3,ATTTTTTG,0.146
4,CTAAAGGA,0.0863
5,GGGTAGGA,-0.205
6,CCGAACGG,0.334
7,CTCCACAA,-0.0566
8,GCGGATAC,0.124
9,ATGGCGGA,-0.208
10,ATTGGTCC,-0.0399
11,CACCAAGA,0.134
12,CGTGCGCC,0.314
13,ATGTGCGA,-0.011
14,CACGCTCA,-0.00088
15,AACGTTGG,-0.0241
16,AGGAGACT,-0.27
17,AGCAAAGA,-0.152
18,GGGGGTAC,-0.025
19,AGCTATAG,-0.267
20,CGACTACA,0.0468
21,GAGTACTA,0.051
22,AGGACCGC,0.0444

row,Sequence,PBM E-score
1,GAAATTTC,-0.153
2,GCAAGCGA,-0.108
3,CGACAACC,-0.103
4,AACCAAGA,0.0718
5,AAGGGATA,-0.00219
6,TCCACCAA,-0.144
7,AATTTCTC,0.174
8,CTGAAAGC,0.0435
9,ATGGACTG,-0.195
10,CAGCTCGC,-0.0157
11,AGTTGAAT,0.145
12,AAAGAGCT,-0.137
13,CAGCAAGA,-0.0152
14,CTGCAAAC,-0.0684
15,CGCCATTA,0.092
16,ATGTAATC,-0.00954
17,GCGGCAAA,0.383
18,AATCCCCC,-0.393
19,CGAATGTA,-0.241
20,AATCGCTG,-0.123
21,CCGTCTTA,0.0744
22,CCCTGTCC,-0.184

row,Sequence,PBM E-score
1,AATGAAGC,0.0211
2,GACTTGAC,-0.145
3,ACCGCTTA,-0.238
4,TAGGAAAA,-0.0169
5,CAATATTA,0.108
6,CTCCTAAA,-0.191
7,AAGCTCGG,-0.0757
8,AGTCGGCA,0.154
9,GCGCAGCC,-0.013
10,AGGCGGAG,0.0102
11,ATTGTTCC,0.11
12,AGAGCTGA,-0.099
13,AGAGATTG,0.0857
14,ATGCTTAG,0.064
15,AAGAAGCT,-0.0628
16,TACACAGA,-0.0248
17,CCTTACAC,0.00933
18,TACCGAAA,-0.0624
19,AACAAGCG,0.0955
20,AATGAGTC,-0.0951
